# According to paper PMC5892938:
# The list shows a part of the results. At the low end of the ranking, values are background and their order means little.
# Target: GST-SBP-SLBP (stem-loop binding protein) (UniProt Q14493)
# Assay: targeted RNA Bind-n-Seq;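 also: DESeq read counts versus GST-SBP nonspecific binding control pulldown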
# Conditions: RBNS binding buffer: 25 mM Tris pH 7.5, 150 mM KCl, 3 mM MgCl2, 0.1% Tween, 0.5 mg/mL BSA, 1 mM DTT; 27 nM protein, 750 pM RNA pool; temperature not stated; high values mean tight binding
row,Sequence,binding signal (log2 fold change)
1,GGUCACGUCUCAAUCAACUCUAUUUCCAGGGAAAGCCCUGGUAUUCUCAACAGCUCGCAGUCAAG,0.00323
2,GGUCACGUCUCAAUCAACUCUAACGAGGGGGGGAAAACCCCUUUACCCUCAACCUCAACAGCUCGCAGUCAAG,0.18
3,GGUCACGUCUCAAUCAACUCAUCGUCAGGAGUUUCCUCCUGCAAUUUCAACAGCUCGCAGUCAAG,-0.0387
4,GGUCACGUCUCAAUCAACUCAUGUCCAGGAGUUUUCUCCUGUAUUUUCAACAGCUCGCAGUCAAG,0.0148
5,GGUCACGUCUCAAUCAACUCAAUUCCCAGGGAAAGCCCUGGUAUUUUCAACAGCUCGCAGUCAAG,0.0297
6,GGUCACGUCUCAAUCAACUCAUCUCCCAGGGAAACCCCUGGCUAUCUCAACAGCUCGCAGUCAAG,-0.163
7,GGUCACGUCUCAAUCAACUCACUCGAGGGGGGGAAAACCCCUUUACCCUCACAUUCAACAGCUCGCAGUCAAG,-0.0439
8,GGUCACGUCUCAAUCAACUCUUCUCCCAGGGAAAGCCCUGGUUAUCUCAACAGCUCGCAGUCAAG,-0.208
9,GGUCACGUCUCAAUCAACUCUUUCCCAGGAGUUUCCUCCUGUAUUCUCAACAGCUCGCAGUCAAG,-0.0405
10,GGUCACGUCUCAAUCAACUCAUCUCCAGGAGUUUCCUCCUGCAAAUUCAACAGCUCGCAGUCAAG,0.116
11,GGUCACGUCUCAAUCAACUCAUCCUCAGGAGUUUCCUCCUGCAAAGUCAACAGCUCGCAGUCAAG,0.259
12,GGUCACGUCUCAAUCAACUCAUCCCCCAGGGAAAUCCCUGGCUUUUUCAACAGCUCGCAGUCAAG,-0.131
13,GGUCACGUCUCAAUCAACUCUUCGUCAGGAGUUUUCUCCUGUAUUUUCAACAGCUCGCAGUCAAG,-0.0348
14,GGUCACGUCUCAAUCAACUCUUUCUCAGGAGUUUACUCCUGCAAACUCAACAGCUCGCAGUCAAG,0.177
15,GGUCACGUCUCAAUCAACUCAUCCUCCAGGGAAAACCCUGGCAAACUCAACAGCUCGCAGUCAAG,-0.0263
16,GGUCACGUCUCAAUCAACUCGUCUUCAGGAGUUUACUCCUGUUUUUUCAACAGCUCGCAGUCAAG,-0.318
17,GGUCACGUCUCAAUCAACUCAUUCUCAGGAGUUUGCUCCUGUUUUCUCAACAGCUCGCAGUCAAG,0.0431
18,GGUCACGUCUCAAUCAACUCAUCCUCCAGGGAAACCCCUGGCUAUUUCAACAGCUCGCAGUCAAG,0.363
19,GGUCACGUCUCAAUCAACUCAAUCCCCAGGGAAAUCCCUGGUUUUUUCAACAGCUCGCAGUCAAG,-0.203
20,GGUCACGUCUCAAUCAACUCAAUCCCAGGAGUUUGCUCCUGCUAAUUCAACAGCUCGCAGUCAAG,0.218
21,GGUCACGUCUCAAUCAACUCAUCGUCCAGGGAAACCCCUGGUUUUUUCAACAGCUCGCAGUCAAG,-0.521
22,GGUCACGUCUCAAUCAACUCUAUCUCCAGGGAAAACCCUGGCAAUGUCAACAGCUCGCAGUCAAG,0.174
23,GGUCACGUCUCAAUCAACUCUUUAGAGGGGGGGAAAACCCCUUUACCCUCACUAUCAACAGCUCGCAGUCAAG,-0.273
24,GGUCACGUCUCAAUCAACUCAAUCCCAGGAGUUUCCUCCUGCAAACUCAACAGCUCGCAGUCAAG,0.257
25,GGUCACGUCUCAAUCAACUCCAUAGAGGGGGGGAAAACCCCUUUACCCUCACUUUCAACAGCUCGCAGUCAAG,0.0449

row,Sequence,binding signal (log2 fold change)
1,GGUCACGUCUCAAUCAACUCUACUCCCAGGGAAAUCCCUGGCAUUUUCAACAGCUCGCAGUCAAG,0.0133
2,GGUCACGUCUCAAUCAACUCAAUUUCAGGAGUUUGCUCCUGCUAACUCAACAGCUCGCAGUCAAG,-0.0757
3,GGUCACGUCUCAAUCAACUCUUCCCCAGGAGUUUCCUCCUGUAAUUUCAACAGCUCGCAGUCAAG,0.000716
4,GGUCACGUCUCAAUCAACUCUAAGGAGGGGGGGAAAACCCCUUUACCCUCAACCUCAACAGCUCGCAGUCAAG,-0.0488
5,GGUCACGUCUCAAUCAACUCAUCUUCAGGAGUUUUCUCCUGCUAACUCAACAGCUCGCAGUCAAG,0.0484
6,GGUCACGUCUCAAUCAACUCAUCGCCAGGAGUUUUCUCCUGUAUUUUCAACAGCUCGCAGUCAAG,-0.0404
7,GGUCACGUCUCAAUCAACUCUUUCCCAGGAGUUUUCUCCUGUUUACUCAACAGCUCGCAGUCAAG,-0.0311
8,GGUCACGUCUCAAUCAACUCUUCUUCAGGAGUUUACUCCUGUAAUUUCAACAGCUCGCAGUCAAG,-0.108
9,GGUCACGUCUCAAUCAACUCUACUCCCAGGGAAAUCCCUGGCAUAUUCAACAGCUCGCAGUCAAG,0.29
10,GGUCACGUCUCAAUCAACUCAAAAGAGGGGGGGAAAACCCCUUUGCCCUCCAAUUCAACAGCUCGCAGUCAAG,-0.306
11,GGUCACGUCUCAAUCAACUCAUGUCCAGGAGUUUACUCCUGCUUUCUCAACAGCUCGCAGUCAAG,-0.172
12,GGUCACGUCUCAAUCAACUCUACUCCCAGGGAAACCCCUGGUUAACUCAACAGCUCGCAGUCAAG,-0.174
13,GGUCACGUCUCAAUCAACUCCAUCGAGGGGGGGAAAACCCCUUUACCCUCAAUCUCAACAGCUCGCAGUCAAG,-0.222
14,GGUCACGUCUCAAUCAACUCUACUUCCAGGGAAAUCCCUGGUUAACUCAACAGCUCGCAGUCAAG,0.0736
15,GGUCACGUCUCAAUCAACUCCUUAGAGGGGGGGAAAACCCCUUUGCCCUCCAUUUCAACAGCUCGCAGUCAAG,-0.0182
16,GGUCACGUCUCAAUCAACUCAUCUUCCAGGGAAAUCCCUGGCAUAUUCAACAGCUCGCAGUCAAG,0.29
17,GGUCACGUCUCAAUCAACUCAUUCCCAGGAGUUUUCUCCUGUAGUCUCAACAGCUCGCAGUCAAG,0.0931
18,GGUCACGUCUCAAUCAACUCAACUCCAGGAGUUUCCUCCUGCAUACUCAACAGCUCGCAGUCAAG,0.0523
19,GGUCACGUCUCAAUCAACUCUUCGUCCAGGGAAAGCCCUGGCAUUUUCAACAGCUCGCAGUCAAG,-0.281
20,GGUCACGUCUCAAUCAACUCUUCCCCAGGAGUUUACUCCUGUUUAUUCAACAGCUCGCAGUCAAG,0.121
21,GGUCACGUCUCAAUCAACUCUUCGCCCAGGGAAAUCCCUGGUAAAUUCAACAGCUCGCAGUCAAG,-0.146
22,GGUCACGUCUCAAUCAACUCAAGUCCCAGGGAAAGCCCUGGUUAAUUCAACAGCUCGCAGUCAAG,-0.126
23,GGUCACGUCUCAAUCAACUCAAUUUCCAGGGAAAGCCCUGGCUUUUUCAACAGCUCGCAGUCAAG,0.267
24,GGUCACGUCUCAAUCAACUCCUUAGAGGGGGGGAAAACCCCUUUACCCUCGUAUUCAACAGCUCGCAGUCAAG,0.186
25,GGUCACGUCUCAAUCAACUCUAUUUCAGGAGUUUUCUCCUGCAAUUUCAACAGCUCGCAGUCAAG,0.0578

row,Sequence,binding signal (log2 fold change)
1,GGUCACGUCUCAAUCAACUCUCCCGAGGGGGGGAAAACCCCUUUACCCUCAAUUUCAACAGCUCGCAGUCAAG,-0.503
2,GGUCACGUCUCAAUCAACUCUAUUUCCAGGGAAAUCCCUGGCUAUCUCAACAGCUCGCAGUCAAG,-0.119
3,GGUCACGUCUCAAUCAACUCUUCCUCCAGGGAAAACCCUGGCAUUUUCAACAGCUCGCAGUCAAG,0.00668
4,GGUCACGUCUCAAUCAACUCAUCCCCAGGAGUUUUCUCCUGCUUAUUCAACAGCUCGCAGUCAAG,0.138
5,GGUCACGUCUCAAUCAACUCUCACGAGGGGGGGAAAACCCCUUUACCCUCCACAUCAACAGCUCGCAGUCAAG,-0.341
6,GGUCACGUCUCAAUCAACUCACUCGAGGGGGGGAAAACCCCUUUACCCUCACUAUCAACAGCUCGCAGUCAAG,-0.55
7,GGUCACGUCUCAAUCAACUCCAUCGAGGGGGGGAAAACCCCUUUACCCUCACUCUCAACAGCUCGCAGUCAAG,0.322
8,GGUCACGUCUCAAUCAACUCAAUCCCAGGAGUUUACUCCUGCUUACUCAACAGCUCGCAGUCAAG,-0.0564
9,GGUCACGUCUCAAUCAACUCAAUGUCAGGAGUUUACUCCUGCUUUUUCAACAGCUCGCAGUCAAG,-0.225
10,GGUCACGUCUCAAUCAACUCAUCUCCCAGGGAAAUCCCUGGUAUUCUCAACAGCUCGCAGUCAAG,0.0118
11,GGUCACGUCUCAAUCAACUCAUAAGAGGGGGGGAAAACCCCUUUGCCCUCGAAUUCAACAGCUCGCAGUCAAG,-0.168
12,GGUCACGUCUCAAUCAACUCAAUCCCCAGGGAAAUCCCUGGUUUACUCAACAGCUCGCAGUCAAG,0.393
13,GGUCACGUCUCAAUCAACUCCCUCGAGGGGGGGAAAACCCCUUUACCCUCAAUUUCAACAGCUCGCAGUCAAG,-0.0258
14,GGUCACGUCUCAAUCAACUCUUCGUCAGGAGUUUUCUCCUGUAAAUUCAACAGCUCGCAGUCAAG,0.143
15,GGUCACGUCUCAAUCAACUCUUCCCCCAGGGAAAACCCUGGCUAUUUCAACAGCUCGCAGUCAAG,0.19
16,GGUCACGUCUCAAUCAACUCAUCGUCCAGGGAAACCCCUGGUAUUUUCAACAGCUCGCAGUCAAG,0.0352
17,GGUCACGUCUCAAUCAACUCUAUUCCAGGAGUUUCCUCCUGUUAUCUCAACAGCUCGCAGUCAAG,0.16
18,GGUCACGUCUCAAUCAACUCUUUCUCAGGAGUUUACUCCUGUAAUCUCAACAGCUCGCAGUCAAG,0.271
19,GGUCACGUCUCAAUCAACUCAAUUUCAGGAGUUUUCUCCUGCAUUCUCAACAGCUCGCAGUCAAG,-0.0449
20,GGUCACGUCUCAAUCAACUCUUCGUCCAGGGAAAUCCCUGGUUAUUUCAACAGCUCGCAGUCAAG,-0.0573
21,GGUCACGUCUCAAUCAACUCUUCGUCCAGGGAAACCCCUGGUAUAUUCAACAGCUCGCAGUCAAG,0.0135
22,GGUCACGUCUCAAUCAACUCAGUUUCAGGAGUUUCCUCCUGCUAUUUCAACAGCUCGCAGUCAAG,-0.262
23,GGUCACGUCUCAAUCAACUCUUUUUCAGGAGUUUUCUCCUGUAAUCUCAACAGCUCGCAGUCAAG,-0.138
24,GGUCACGUCUCAAUCAACUCCUCAGAGGGGGGGAAAACCCCUUUACCCUCGUUAUCAACAGCUCGCAGUCAAG,-0.487
